Results: the supplement of paper PMC8728848
Some of the results follow.

Assays:
Assay in all cases: glycan array binding signal (z-score within array); higher = stronger binding
Conditions in all cases: glycan notation: IUPAC condensed, linker removed
Fuc(a1-2)Gal = target: Fuc(a1-2)Gal
Method in brief: (§1)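 Columns mapping to the same glycan were averaged after glycan names were converted to IUPAC-condensed notation. The data come from 3228 arrays in the Consortium for Functional Glycomics database, limited to those with an available protein sequence. Binding is reported as a within-array Z-score averaged across arrays of one protein sequence and across linkers.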

Fuc(a1-2)Gal(b1-3)GalNAc = target: Fuc(a1-2)Gal(b1-3)GalNAc
Method in brief: as §1

[1] = target: Fuc(a1-2)Gal(b1-3)GalNAc(a1-3)[Fuc(a1-2)]Gal(b1-4)Glc
Method in brief: as §1

[2] = target: Fuc(a1-2)Gal(b1-3)GalNAc(a1-3)[Fuc(a1-2)]Gal(b1-4)GlcNAc
Method in brief: as §1

[3] = target: Fuc(a1-2)Gal(b1-3)GalNAc(b1-3)Gal
Method in brief: as §1

[4] = target: Fuc(a1-2)Gal(b1-3)GalNAc(b1-3)Gal(a1-4)Gal(b1-4)Glc
Method in brief: as §1

[5] = target: Fuc(a1-2)Gal(b1-3)GalNAc(b1-4)[Neu5Ac(a2-3)]Gal(b1-4)Glc
Method in brief: as §1

Fuc(a1-2)Gal(b1-3)GlcNAc = target: Fuc(a1-2)Gal(b1-3)GlcNAc
Method in brief: as §1

[6] = target: Fuc(a1-2)Gal(b1-3)GlcNAc(b1-2)Man(a1-3)[Fuc(a1-2)Gal(b1-3)GlcNAc(b1-2)Man(a1-6)]Man(b1-4)GlcNAc(b1-4)GlcNAc
Method in brief: as §1

[7] = target: Fuc(a1-2)Gal(b1-3)GlcNAc(b1-2)Man(a1-3)[Fuc(a1-2)Gal(b1-3)GlcNAc(b1-2)Man(a1-6)]Man(b1-4)GlcNAc(b1-4)[Fuc(a1-6)]GlcNAc
Method in brief: as §1

[8] = target: Fuc(a1-2)Gal(b1-3)GlcNAc(b1-3)Gal(b1-4)Glc
Method in brief: as §1

[9] = target: Fuc(a1-2)Gal(b1-3)GlcNAc(b1-3)GalNAc
Method in brief: as §1

[10] = target: Fuc(a1-2)Gal(b1-3)GlcNAc(b1-3)[Fuc(a1-3)[Gal(b1-4)]GlcNAc(b1-6)]Gal(b1-4)Glc
Method in brief: as §1

[11] = target: Fuc(a1-2)Gal(b1-3)GlcNAc(b1-3)[Gal(b1-4)GlcNAc(b1-6)]Gal(b1-4)Glc
Method in brief: as §1

[12] = target: Fuc(a1-2)Gal(b1-3)GlcNAc(b1-3)[Neu5Ac(a2-6)Gal(b1-4)GlcNAc(b1-6)]Gal(b1-4)Glc
Method in brief: as §1

[13] = target: Fuc(a1-2)Gal(b1-3)[Fuc(a1-4)]GlcNAc
Method in brief: as §1

[14] = target: Fuc(a1-2)Gal(b1-3)[Fuc(a1-4)]GlcNAc(b1-2)Man(a1-3)[Fuc(a1-2)Gal(b1-3)[Fuc(a1-4)]GlcNAc(b1-2)Man(a1-6)]Man(b1-4)GlcNAc(b1-4)GlcNAc
Method in brief: as §1

[15] = target: Fuc(a1-2)Gal(b1-3)[Fuc(a1-4)]GlcNAc(b1-3)[Fuc(a1-3)[Gal(b1-4)]GlcNAc(b1-6)]Gal(b1-4)Glc
Method in brief: as §1

[16] = target: Fuc(a1-2)Gal(b1-3)[Fuc(a1-4)]GlcNAc(b1-3)[Gal(b1-4)GlcNAc(b1-6)]Gal(b1-4)Glc
Method in brief: as §1

Fuc(a1-2)Gal(b1-4)Glc = target: Fuc(a1-2)Gal(b1-4)Glc
Method in brief: as §1

Fuc(a1-2)Gal(b1-4)Glc6S = target: Fuc(a1-2)Gal(b1-4)Glc6S
Method in brief: as §1

Fuc(a1-2)Gal(b1-4)GlcNAc = target: Fuc(a1-2)Gal(b1-4)GlcNAc
Method in brief: as §1

[17] = target: Fuc(a1-2)Gal(b1-4)GlcNAc(b1-2)Man(a1-3)[Fuc(a1-2)Gal(b1-4)GlcNAc(b1-2)Man(a1-6)]Man(b1-4)GlcNAc(b1-4)GlcNAc
Method in brief: as §1

[18] = target: Fuc(a1-2)Gal(b1-4)GlcNAc(b1-2)Man(a1-3)[Fuc(a1-2)Gal(b1-4)GlcNAc(b1-2)Man(a1-6)]Man(b1-4)GlcNAc(b1-4)[Fuc(a1-6)]GlcNAc
Method in brief: as §1

[19] = target: Fuc(a1-2)Gal(b1-4)GlcNAc(b1-2)[Fuc(a1-2)Gal(b1-4)GlcNAc(b1-4)]Man(a1-3)[Fuc(a1-2)Gal(b1-4)GlcNAc(b1-2)Man(a1-6)]Man(b1-4)GlcNAc(b1-4)GlcNAc
Method in brief: as §1

[20] = target: Fuc(a1-2)Gal(b1-4)GlcNAc(b1-3)Gal(b1-4)GlcNAc
Method in brief: as §1

[21] = target: Fuc(a1-2)Gal(b1-4)GlcNAc(b1-3)Gal(b1-4)GlcNAc(b1-3)Gal(b1-4)GlcNAc
Method in brief: as §1

[22] = target: Fuc(a1-2)Gal(b1-4)GlcNAc(b1-3)GalNAc
Method in brief: as §1

[23] = target: Fuc(a1-2)Gal(b1-4)GlcNAc(b1-3)[Fuc(a1-2)Gal(b1-4)GlcNAc(b1-6)]GalNAc
Method in brief: as §1

[24] = target: Fuc(a1-2)Gal(b1-4)GlcNAc6S
Method in brief: as §1

[25] = target: Fuc(a1-2)Gal(b1-4)[Fuc(a1-3)]GlcNAc
Method in brief: as §1

[26] = target: Fuc(a1-2)Gal(b1-4)[Fuc(a1-3)]GlcNAc(b1-2)Man(a1-3)[Fuc(a1-2)Gal(b1-4)[Fuc(a1-3)]GlcNAc(b1-2)Man(a1-6)]Man(b1-4)GlcNAc(b1-4)GlcNAc
Method in brief: as §1

[27] = target: Fuc(a1-2)Gal(b1-4)[Fuc(a1-3)]GlcNAc(b1-2)[Fuc(a1-2)Gal(b1-4)[Fuc(a1-3)]GlcNAc(b1-4)]Man(a1-3)[Fuc(a1-2)Gal(b1-4)[Fuc(a1-3)]GlcNAc(b1-2)Man(a1-6)]Man(b1-4)GlcNAc(b1-4)GlcNAc
Method in brief: as §1

[28] = target: Fuc(a1-2)Gal(b1-4)[Fuc(a1-3)]GlcNAc(b1-3)Gal(b1-4)[Fuc(a1-3)]GlcNAc
Method in brief: as §1

[29] = target: Fuc(a1-2)Gal(b1-4)[Fuc(a1-3)]GlcNAc(b1-3)Gal(b1-4)[Fuc(a1-3)]GlcNAc(b1-3)Gal(b1-4)[Fuc(a1-3)]GlcNAc
Method in brief: as §1

[30] = target: Fuc(a1-2)Gal(b1-4)[Fuc(a1-3)]GlcNAc(b1-3)GalNAc
Method in brief: as §1

Fuc(a1-2)Gal6S(b1-4)Glc = target: Fuc(a1-2)Gal6S(b1-4)Glc
Method in brief: as §1

B1: F17aG (Escherichia coli), Q99003 (protein)
chain: MTNFYKVFLAVFILVCCNISQAAVSFIGSTENDVGPSLGSYSRTHAMDNLPFVYDTRNKIGYQNANVWHISKGFCVGLDGKVDLPVVGSLDGQSIYGLTEEVGLLIWMGDTKYSRGTAMSGNSWENVFSGWCVGANTASTQGLSVRVTPVILKRNSSARYSVQKTSIGSIRMRPYNGSSAGSVQTTVNFSLNPFTLNDTVTSCRLLTPSAVNVSLAAISAGQLPSSGDEVVAGTTSLKLQCDAGVTVWATLTDATTPSNRSDILTLTGASTATGVGLRIYKNTDSTPLKFGPDSPVKGNENQWQLSTGTETSPSVRLYVKYVNTGEGINPGTVNGISTFTFSYQ
- glycan array binding signal (z-score) (Fuc(a1-2)Gal): -0.247
- glycan array binding signal (z-score) (Fuc(a1-2)Gal(b1-3)GalNAc): -0.212
- glycan array binding signal (z-score) [1]: -0.158
- glycan array binding signal (z-score) [2]: -0.133
- glycan array binding signal (z-score) [3]: 0.952
- glycan array binding signal (z-score) [4]: -0.23
- glycan array binding signal (z-score) [5]: -0.252
- glycan array binding signal (z-score) (Fuc(a1-2)Gal(b1-3)GlcNAc): -0.245
- glycan array binding signal (z-score) [6]: -0.15
- glycan array binding signal (z-score) [7]: -0.125
- glycan array binding signal (z-score) [8]: -0.243
- glycan array binding signal (z-score) [9]: -0.129
- glycan array binding signal (z-score) [10]: -0.148
- glycan array binding signal (z-score) [11]: -0.174
- glycan array binding signal (z-score) [12]: -0.153
- glycan array binding signal (z-score) [13]: -0.226
- glycan array binding signal (z-score) [14]: -0.169
- glycan array binding signal (z-score) [15]: -0.139
- glycan array binding signal (z-score) [16]: -0.151
- glycan array binding signal (z-score) (Fuc(a1-2)Gal(b1-4)Glc): -0.228
- glycan array binding signal (z-score) (Fuc(a1-2)Gal(b1-4)Glc6S): -0.123
- glycan array binding signal (z-score) (Fuc(a1-2)Gal(b1-4)GlcNAc): -0.212
- glycan array binding signal (z-score) [17]: -0.166
- glycan array binding signal (z-score) [18]: -0.177
- glycan array binding signal (z-score) [19]: -0.163
- glycan array binding signal (z-score) [20]: -0.259
- glycan array binding signal (z-score) [21]: -0.258
- glycan array binding signal (z-score) [22]: -0.165
- glycan array binding signal (z-score) [23]: 0.305
- glycan array binding signal (z-score) [24]: -0.172
- glycan array binding signal (z-score) [25]: 0.046
- glycan array binding signal (z-score) [26]: -0.15
- glycan array binding signal (z-score) [27]: -0.163
- glycan array binding signal (z-score) [28]: -0.24
- glycan array binding signal (z-score) [29]: -0.238
- glycan array binding signal (z-score) [30]: -0.118
- glycan array binding signal (z-score) (Fuc(a1-2)Gal6S(b1-4)Glc): -0.156
